Data taken from the supplement of paper PMC10126150.
Values marked as one replicate rest on one cluster of the flow cell; about a third of the high ones do not repeat.

System: ATP
Assay: switch fluorescence ratio, 500 uM ATP over buffer (Cy3 cluster intensity, sum of 5 cycles each) (fold (ratio)); higher = stronger signal-on switching upon ATP binding; sequences stand for … in TCGTCGGCAGCGTCAGATGTGTATAAGAGACAGTTTTTTTTTTTTTTTTTTTTTTTTT…TC
Details: aptamer strand: ATP DNA aptamer (quencher-CACCTGGGGGAGTATTGCGGAGGAAGG + anchor), 100 nM annealed; ATP concentration: 500 uM; one replicate
Summary of the method: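 After annealing to 100 nM quencher-labelled ATP aptamer, Cy3-labelled switching-strand clusters on a modified Illumina MiSeq flow-cell were imaged in selection buffer. A second image followed after 15 min with 500 uM ATP at 22 °C, and five such buffer/ATP cycles were done, each separated by NaOH stripping and re-annealing. The fluorescence ratio, averaged per switch-domain sequence, is summed target-cycle over summed buffer-cycle Cy3 intensity per cluster, with clusters outside 100-1000 RFU excluded.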
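Also: ATP exposure 15 min at 22 °C before imaging.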

Sequence | switch fluorescence ratio
TGCGTGGAGA | 1.07
TGATAAGGGC | 1.02
GCGGAGGTGC | 0.984
CGTGCAGATT | 1
CGCGGCTCGG | 1
CTAAGGTTCC | 1.09
GGATAAGGAT | 1.02
TGAGCGTTGA | 0.988
TGCGATCCAT | 1.04
ATATGGATCT | 0.937
CTGTCATAGT | 0.998
CGACTGTAAT | 1.96
TAAACTTGTA | 1
TACACTTATG | 1.03
GCGGGCCAAT | 1.29
TACATGAGCT | 1.06
CACAGAATGC | 1.08
CCCCCTTCGC | 1.98
CTGAGTAATG | 1.14
AGGCTGGGTC | 1.02
CGAGGTCCAA | 1.05
TAAAAAGCCC | 1.04
AGTATAGGTC | 0.978
CGCCGTTGCT | 1.02
GTCTGGATTC | 0.969
CAGCGGGAGC | 0.957

Sequence | switch fluorescence ratio
ATAAACGACG | 0.98
GGTGATCCAT | 0.971
CGGTGCTCAT | 0.991
CTCGGTACGC | 0.99
ATAAAGGAGG | 0.978
CCCTACTTCA | 1.07
GTTGTTCACC | 1.04
GTGTAATCGG | 0.981
AGAGGCCTC | 0.955
TCAGGTGCAG | 1.09
CAAAAGGGAC | 1.04
GATGTGCAC | 1.15
TTTTTCTCTA | 1.01
ATGCTGATGG | 0.963
TAATGGTCA | 1.06
CTGAAAGTTC | 0.989
CCTGTAGGTG | 1.63
AGTGGTTGG | 1.03
ATTGGCCCGC | 1.02
CACATCCGCC | 1.63
CAACGCCTAA | 1.16
GACCCAGTTG | 1.3
TTCTAGAAGG | 1.02
GTATTCGGTC | 0.987
GGCGAAATTT | 0.988
AGAATTCCGA | 1.01

Sequence | switch fluorescence ratio
TCTAAATAAT | 1.03
TTTCAGTAGT | 0.986
CTATGCTACG | 0.993
ACGAGACTCT | 1.06
ACTCGAGAGC | 0.971
CGGTATTCCC | 1.06
AAACAGAGT | 0.961
CAAGTATTCA | 1.03
CACTAATCCC | 1.07
ATCGGGATGT | 0.994
TTTCGTGCAA | 1.9
GGTTCGTTCT | 0.977
GAACACAAGG | 1.02
CGCGTCGGCA | 1.01
CCTTGTAACC | 1.15
TTACGCATTA | 1.82
GCCACGATAT | 1.21
TATAAGTGCC | 1.03
AACGATGACT | 1.11
CGATAAAGTC | 1.02
ACTAGAGACT | 1.03
CGAAGGGAGG | 1.08
GGCTATTCA | 1.03
TAATGACTTA | 0.991
GGTTAGTCGG | 1.01
TTGGTCGA | 0.989

Sequence | switch fluorescence ratio
TATGCCGCTT | 1
CGCATTTTAG | 1.14
CCGTAACTAA | 2.47
GGCCCTTTAC | 1.16
GGGCAGCTTC | 1.05
TGTGGGGCCT | 0.981
CACAGGAGAC | 1.05
TAAAAGCCAA | 1.13
CCTAGGGATA | 0.975
AATCAGCTAC | 2.61
AGTAGGTGCT | 1
GGATGGAAGT | 1.04
GGAGATCTTC | 0.971
TGCAAAGGAG | 0.981
CATAAATGGA | 1
AAATAGATGT | 0.994
GGGCGATCGT | 1.03
TAACGACAGA | 1
TAAAAGATG | 0.974
TTACTCTGT | 1.02
ACTTTCATTT | 1.04
ACGCCTCGCA | 1.25
GTTCTCAGTT | 0.957
AATCACCCGT | 0.997
GTGGCCACTC | 0.967
GCGCAACCAC | 2.28

Sequence | switch fluorescence ratio
GAAACCTAAC | 1.36
CATCATTCA | 0.97
CGAATAAG | 1.04
ACTTGAACGA | 1.06
CGCCCAGGGA | 2.85
GGGGGACATG | 1.07
TTAATTGTAG | 0.989
GTTTAATGAC | 0.96
AAATTCAGTA | 1.03
TCTGGTCTTA | 0.954
TAGACGGCAG | 1.03
GGCCCAATGA | 1.02
GCGCGAATGC | 2.11
TCATTGAAGG | 0.962
GCTCGGAATG | 1.04
GTCTGAATGG | 0.904
ATTATGACGT | 0.978
TAATGAAGCA | 1.04
CAGAGGGAGA | 1.04
AAACCAGAAG | 1.05
AGGTAACGT | 0.97
AGTTGCTAAT | 0.971
TAGTGGTGAC | 0.967
AGCCTAATAG | 1.07
ACGTTGAGTA | 0.974
GAGCTCTCCG | 1.24

Sequence | switch fluorescence ratio
TAGCGTCCCG | 0.939
GATGCATGAG | 1.05
ACCATTAGTC | 1.04
GAGCGCACAT | 1.15
TTATATTACA | 1.02
AGGTATCTTT | 1.01
TTGCCCCAT | 1.03
AGTTGATTTA | 0.97
AAATATCGGG | 1.03
AGGGACAGTT | 1.02
CTCAGGCTTT | 1.03
AAGGGTTCT | 1
ACCCTAGTTT | 1.04
TACCAAACCG | 1.15
AGATACGGG | 1.06
CGGGGTCGGG | 1.03
ACCGATTAGA | 1.04
AACGGAGTCT | 0.99
ATCTGGCTGT | 1.02
AGGAACCCTC | 1.01
GAATATTAT | 1.07
TATAAATGCA | 0.957
TACATCGGCC | 1.03
